# Experimental data: PubChem BioAssay AID1768 (National Center for Advancing Translational Sciences (NCATS), 2009)
# The whole screen tested about 270,000 compounds, of which about 620 (0.23%) were called active. The shares of active, inactive and inconclusive entries below differ from those in the screen. The call rests on the fitted dose curve; in most records, active means well fitted inhibition curve with a large enough effect in the polarisation, with a control signal flat (not every such curve was filed as active); inconclusive means small, poorly fitted or top-dose-only effect, or effect the other way, or a change in a side signal; inactive means no such curve, though single readings can be large or run the other way; the % refers to the polarisation. A potency beside an inconclusive call is a rough fit, not a confirmed value. A note “side channel” means that the fit belongs to a control or component signal, not to the main read-out.
# Target: Menin (Homo sapiens) (UniProt O00255)
# Assay: qHTS Assay for Inhibitors Targeting the Menin-MLL Interaction in MLL Related Leukemias: Competition With Texas Red Labeled MLL-derived Mutant Peptide
# Settings: fluorescence polarization; series mostly up to 61.6 µM
# Potency means the concentration at half of the fitted maximal effect; tags describe the fitted curve by direction and shape or compound fluorescence and quenching.
# Chain of UniProt O00255 (O00255 whole entry, looked up): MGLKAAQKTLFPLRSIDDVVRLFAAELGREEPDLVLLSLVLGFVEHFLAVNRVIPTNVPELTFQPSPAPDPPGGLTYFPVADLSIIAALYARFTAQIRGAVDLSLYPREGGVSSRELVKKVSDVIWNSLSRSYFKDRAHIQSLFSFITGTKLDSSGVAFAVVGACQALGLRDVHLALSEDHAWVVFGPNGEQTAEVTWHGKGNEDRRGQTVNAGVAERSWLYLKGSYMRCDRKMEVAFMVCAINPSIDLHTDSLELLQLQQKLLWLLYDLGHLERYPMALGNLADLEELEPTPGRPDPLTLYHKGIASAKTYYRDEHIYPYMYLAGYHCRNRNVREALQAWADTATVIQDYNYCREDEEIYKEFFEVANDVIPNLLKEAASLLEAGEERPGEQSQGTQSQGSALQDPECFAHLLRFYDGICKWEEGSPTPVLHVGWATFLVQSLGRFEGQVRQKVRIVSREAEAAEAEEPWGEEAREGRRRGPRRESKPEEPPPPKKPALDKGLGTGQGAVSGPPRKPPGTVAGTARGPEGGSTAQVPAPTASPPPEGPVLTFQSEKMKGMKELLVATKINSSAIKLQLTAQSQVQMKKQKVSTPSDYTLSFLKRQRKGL
row,Structure (SMILES),Potency
1,CCOc1ccc(-c2noc(CCCC(=O)NC3CCCCC3)n2)cc1OC,"inconclusive: 22.4 µM [inhibitor, partial curve]"
2,COc1ccc(-c2nn(C)c(=O)c3ccccc23)cc1NC(=O)COc1ccc(C)cc1,"inconclusive: 3.16 µM [fluorescent, side channel, full curve, poor fit]"
3,CC(C)OCc1c(C(=O)Nc2nccs2)oc2ccccc12,"inconclusive: 3.55 µM [quencher, side channel, full curve, poor fit]"
4,CCOC(=O)c1cnc(SCc2nc(N)nc(Nc3ccc(OC)cc3)n2)nc1N,"inconclusive: 10 µM [quencher, side channel, partial curve]"
5,Cc1ccc(-n2c(C)cc(C(=O)CN3CCOCC3)c2C)cc1C,"inconclusive: 14.1 µM [fluorescent, side channel, partial curve]"
6,CC1=NN(c2nc(-c3ccc(Cl)cc3)cs2)C(=O)C1,"inconclusive: 15.8 µM [quencher, side channel, partial curve]"
7,Cc1oc2c(cc(NS(=O)(=O)c3ccc4c5c(cccc35)C(=O)N4)c3ccccc32)c1C(=O)OC(C)C,"inconclusive: 12.6 µM [quencher, side channel, partial curve]"
8,COc1cccc(C(=O)OCC(=O)NCCCc2ccccc2)c1,"inconclusive: 35.5 µM [fluorescent, side channel, partial curve]"
9,CCOc1ccc(N2C(=O)CC(NC3CCN(C(=O)c4ccc(F)cc4)CC3)C2=O)cc1 (centres undefined),"inconclusive: 50.1 µM [inhibitor, partial curve]"
10,CCn1cc(C(=O)NCc2cccnc2)c(=O)c2cc(F)c(N3CCN(C(=O)c4ccco4)CC3)cc21,"inconclusive: 17.8 µM [fluorescent, side channel, single point]"
11,O=C(COc1cccnc1[N+](=O)[O-])N1CCN(S(=O)(=O)c2ccccc2)CC1,inactive
12,Cc1ccc(NC(=O)CCC(=O)NNC(=O)C(c2ccccc2)c2ccccc2)c(C)c1,"inconclusive: 25.1 µM [fluorescent, side channel, single point]"
13,Cc1cc(N)n2nc(-c3ccccc3)c(-c3ccccc3)c2n1,"inconclusive: 28.2 µM [quencher, side channel, partial curve]"
14,CCn1c(O)c(/C=C2\C=Nc3ccccc32)sc1=Nc1ccccc1,"inconclusive: 1.58 µM [quencher, side channel, full curve]"
15,CCCOP(=O)(c1ccc(N(C)C)cc1)C(O)c1cc(OC)c(OC)c(OC)c1 (centres undefined),"inconclusive: 25.1 µM [fluorescent, side channel, single point]"
16,N#Cc1cccc(NC(=O)N2CC[C@@]3(CCCN(C(=O)c4ccncc4)C3)C2)c1,"inconclusive: 2.24 µM [inhibitor, full curve]"
17,Cc1cccc(C)c1OCC(=O)Nc1cccc(C(=O)O)c1,"inconclusive: 3.16 µM [inhibitor, partial curve, poor fit]"
18,NS(=O)(=O)c1ccc(CCNC(=O)CNC(=O)c2ccc(Oc3ccccc3)cc2)cc1,"inconclusive: 35.5 µM [fluorescent, partial curve]"
19,CC(C)c1ccc(CN(C)CC(O)c2ccccc2)cc1 (centres undefined),"inconclusive: 12.6 µM [fluorescent, side channel, partial curve]"
20,Cc1ccc2nc(NC(=O)c3ccc(NS(=O)(=O)c4cccs4)cc3)sc2c1,"inconclusive: 10 µM [quencher, side channel, partial curve]"

row,Structure (SMILES),Potency
1,CCc1ccc(/C=C/C(=O)c2cc(Br)ccc(=O)c2O)cc1,"inconclusive: 20 µM [quencher, side channel, partial curve]"
2,CS(=O)(=O)NCCSCc1ccc(Cl)cc1,inactive
3,NS(=O)(=O)c1ccc(Nc2nc(-c3cccnc3)cs2)cc1,"inconclusive: 35.5 µM [inhibitor, single point]"
4,COc1cc2c(cc1OC)CN(C(=O)/C=C/c1ccc(F)cc1)CC2,"inconclusive: 20 µM [inhibitor, partial curve]"
5,O=C(c1ccccc1)C(Cn1cncn1)C(Sc1ccccc1)c1ccccc1 (centres undefined),"inconclusive: 14.1 µM [fluorescent, side channel, partial curve]"
6,CN(Cc1ccccc1)c1ccc(C(CC(N)=O)NC(=O)c2ccc(Br)cc2)cc1[N+](=O)[O-] (centres undefined),"inconclusive: 12.6 µM [quencher, side channel, partial curve]"
7,CCOC(=O)C1(CCc2ccccc2)CCN(Cc2cccc3nccnc23)CC1,"inconclusive: 7.08 µM [fluorescent, side channel, partial curve]"
8,CC(C)CC(=O)N1CCC(N(CCc2ccccc2)Cc2ccccc2)CC1,"inconclusive: 1 µM [fluorescent, side channel, full curve, poor fit]"
9,CCn1nc(C)c(/C=N/NC(=O)c2ccc3c(c2)c(C)c(C)n3Cc2ccccc2)c1C,inactive
10,COc1cc(C(=O)NCC2(c3ccccc3)CCCC2)ccc1OC(C)C,"inconclusive: 11.2 µM [fluorescent, side channel, partial curve]"
11,COc1ccc2oc(=O)c(NC(=O)C3CCCCC3)cc2c1,"inconclusive: 39.8 µM [fluorescent, side channel, single point]"
12,CC(=O)Nc1ccc(S(=O)(=O)N2CCc3cc4c(cc3C2)OCCCO4)cc1,"inconclusive: 39.8 µM [fluorescent, side channel, single point]"
13,Nc1n[nH]c(N)c1N=Nc1ccc(Cl)cc1Cl,"inconclusive: 39.8 µM [quencher, side channel, single point]"
14,Cc1ccc(C(=O)NCCNc2ccc([N+](=O)[O-])cc2C(F)(F)F)cc1,"inconclusive: 6.31 µM [quencher, side channel, partial curve]"
15,O=c1[nH]c2ccc(S(=O)(=O)N3CCN(C4CCCCC4)CC3)cc2[nH]c1=O,inactive
16,COc1ccc2cc(Br)ccc2c1CC(=O)NCC1CCCO1 (centres undefined),inactive
17,COc1ccc(-c2[nH]ncc2CNCCn2cccn2)c(F)c1,inactive
18,Cc1cccc2c(N=Nc3ccc(S(=O)(=O)Nc4cccc(Cl)c4)cc3[N+](=O)[O-])c(O)[nH]c12,"inconclusive: 1.78 µM [quencher, side channel, full curve]"
19,O=C(c1ccc2c(c1)OCO2)C1CCCN(C2CCN(CCc3ccccc3)CC2)C1 (centres undefined),"inconclusive: 20 µM [fluorescent, side channel, partial curve, poor fit]"
20,Oc1ccc(-c2nccc(-c3ccc(F)cc3)n2)cc1,"inconclusive: 28.2 µM [quencher, side channel, single point]"

row,Structure (SMILES),Potency
1,O=c1oc2ccccc2cc1-c1csc(Nc2nc3c(F)cccc3s2)n1,"inconclusive: 8.91 µM [quencher, side channel, full curve, poor fit]"
2,Cc1ccc(S(=O)(=O)NN2C(=O)/C(=C/c3ccccn3)SC2=S)cc1,"inconclusive: 20 µM [quencher, side channel, single point]"
3,NC(=O)N/N=C/c1ccc([N+](=O)[O-])o1,inactive
4,CCCCCCn1c(C)nc2c(c1=O)c1nc3ccccc3nc1n2/N=C/c1ccco1,inactive
5,O=C(Oc1ccc(C(=S)N2CCOCC2)cc1)c1ccc(F)cc1,"inconclusive: 39.8 µM [fluorescent, side channel, single point]"
6,C=C1c2cccc(O)c2C(O)=C2C(=O)[C@]3(O)C(O)=C(C(N)=O)C(=O)C(N(C)C)C3C(O)C12 (some centres undefined),"inconclusive: 35.5 µM [quencher, side channel, single point]"
7,Cc1ccc(NC(=S)NCCN(C2CCCCC2)C2CCCC2)cc1,"inconclusive: 20 µM [fluorescent, side channel, partial curve]"
8,CCCCN1C(=O)NC2NC(=O)NC21 (centres undefined),inactive
9,CCOC(=O)C1(Cc2ccc(Cl)cc2)CCN(CCCn2cccn2)CC1,inactive
10,O=C(NCc1ccc2c(c1)OCO2)C1CCN(S(=O)(=O)c2cccs2)CC1,inactive
11,COC(=O)c1ccc(CSc2nc3scc(-c4cccs4)c3c(=O)[nH]2)o1,"inconclusive: 25.1 µM [quencher, partial curve]"
12,CS(=O)c1ccccc1-c1nc(-c2ccc(Cl)cc2)no1 (centres undefined),"inconclusive: 39.8 µM [fluorescent, side channel, single point]"
13,Cc1ccncc1C(=O)O,inactive
14,CC(=O)Cc1nsc(NC(=O)c2ccc(-c3ccccc3Cl)o2)n1,"inconclusive: 28.2 µM [quencher, side channel, single point]"
15,COc1ccc(NC(=O)CN2CCN(c3c(C)cccc3C)CC2)cc1,"inconclusive: 12.6 µM [fluorescent, side channel, partial curve, poor fit]"
16,O=C(Nc1cccc([N+](=O)[O-])c1)Nc1ccc2c(c1)OCCO2,"inconclusive: 12.6 µM [quencher, side channel, partial curve]"
17,Cc1ccc(NC(=O)n2ncc3c(C)cccc32)cc1F,"inconclusive: 10 µM [inhibitor, partial curve]"
18,Cn1c(SCc2ccccc2Cl)nc(C(F)(F)F)cc1=O,"inconclusive: 31.6 µM [inhibitor, single point]"
19,O=C(Nc1c(Cl)cccc1Cl)c1ccc(-c2ccccc2)cc1,"inconclusive: 39.8 µM [inhibitor, single point]"
